From PubChem BioAssay (NCI)
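Exposure lasted 48 hours, with cells grown in 96-well plates and compounds tested at five concentrations. GI50: concentration for 50% inhibition of growth. The concentration for full growth arrest is given as TGI.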

System: NCI-H322M lung
Assay: growth of human tumour cells (NCI), 48 h

In order of falling GI50:
1. Cn1cc(-c2nnc(N)nc2-c2c[nH]c3ccccc23)c2cc(Br)cnc21  11.9 µM
2. N/C(=N\c1nc2ccccc2s1)NC(=O)Nc1ccccc1F  4.67 µM
3. C#C[C@]1(O)CC[C@H]2[C@@H]3CC=C4c5sc(Nc6ccc(N(C)C)cc6)nc5CC[C@]4(C)[C@H]3CC[C@@]21C  2.51 µM

In order of rising TGI:
1. C#C[C@]1(O)CC[C@H]2[C@@H]3CC=C4c5sc(Nc6ccc(N(C)C)cc6)nc5CC[C@]4(C)[C@H]3CC[C@@]21C  10.2 µM
2. Cn1cc(-c2nnc(N)nc2-c2c[nH]c3ccccc23)c2cc(Br)cnc21  24.1 µM
3. N/C(=N\c1nc2ccccc2s1)NC(=O)Nc1ccccc1F  52 µM
